Data reported in PubChem BioAssay AID1963576 (National Center for Advancing Translational Sciences (NCATS), 2024).
Screen size: about 46,000 compounds; about 60 (0.1%) were called active. Inconclusive results (about 3%) are left out. Calls follow the shape of the dose curve; as a rule, active = well fitted inhibition curve with a large enough effect; inconclusive = small, poorly fitted or top-dose-only effect; inactive = no such curve, though single readings can be large or run the other way. The list shows a part of the results.

experiment: Primary qHTS assay for Inhibitors of ovarian cancer metastasis using an organotypic tumor microenvironment (TME) model.; also: nearly all actives have a fitted effect of over 65% in size;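 as to activity change, negative = inhibition: plate controls were DMSO wells for no effect and tomatine positive control wells for full effect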; settings: SKOV3ip1-GFP adhesion/invasion on 3D omental model, fluorescence; series mostly up to 45.8 µM; activity change, negative = inhibition: at the top concentration
In short: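 Primary human omental fibroblast/mesothelial 3D culture pre-formed 48 h. SKOV3ip1-GFP cells added with compounds (0.36-46 umol/L), incubated 2 h RT/16 h 37 C, fixed; GFP cells quantified at 488/509 nm.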

Activity change, negative = inhibition, inactive:
CCOc1ccc(-c2cc(C(=O)Oc3ccc(C#N)cc3)no2)cc1 -8.16%
Cc1cccc(/C=C(\C#N)c2nc3ccccc3c(=O)[nH]2)c1 10.6%
CCOC(=O)C1CCC(CN(Cc2ccccc2)S(=O)(=O)c2ccc(Br)cc2)CC1 (stereo not given) -2.1%
CCCN1Cc2cccc(C(=O)Nc3ccc(C(C)=O)cc3)c2C1=O -5.73%
O=C(CCS(=O)(=O)c1ccccc1)N(Cc1cccnc1)c1nc2ccc(Cl)cc2s1 5.52%
COc1ccc(N2CCN(CCCNC(=O)c3cc(Nc4ccc(OC)cc4OC)nc4ccccc34)CC2)cc1 -4.03%
CNC(=O)[C@H](CC1=CN=C2C=CCC=C12)NC(=O)[C@@H](CC(=O)NO)CC(C)C -6.24%
Cc1cccc(-n2c(=O)c3c(c4cc(C)ccc4n3C)n(CC(=O)N3CCCC3)c2=O)c1 -23.1%
CC=CC1=C(C(=O)O)N2C(=O)[C@H](NC(=O)[C@H](N)c3ccc(O)cc3)[C@@H]2SC1 14.5%
Cc1c(C(=O)Nc2cccc(Cl)c2)sc2nc3n(c(=O)c12)N=C(c1cccc(Br)c1)CS3 -5.66%
Cc1cccc(C)c1OCCCn1c(CCNC(=O)C2CCCCC2)nc2ccccc21 10.6%
Cc1ccc(NC(=O)Cn2c(=O)n(Cc3nc(C)no3)c(=O)c3ccccc32)c(Cl)c1 -8.51%
Cc1c(CCC(=O)NCCc2ccc(Cl)cc2)c(=O)oc2c(C)c(O)ccc12 7.43%
CCc1ccc(-n2c(=O)c3c4c(sc3n(CC(=O)N3CCCCC3CC)c2=O)CCC4)cc1 (stereo not given) 8.62%
Cc1ccc(CNC(=O)c2ccc(NC(=O)N3CCSc4ncccc43)cc2)cc1 -9.05%
O=C(NCc1cccs1)c1ccc2c(=O)n3nc(Nc4ccccc4)sc3nc2c1 -8.54%
Cc1ccc2c(c1Br)C(O)(CC(=O)c1ccc(F)cc1)C(=O)N2 (stereo not given) 0.821%
O=C(NC1CC(=O)N(c2ccc(F)cc2)C1)c1ccc(S(=O)(=O)N2CCCCC2)cc1 (stereo not given) 3.88%
CCOC(=O)Cn1c(=O)n(CC2CCCO2)c2nc(-c3ccccc3OC)nc(C(N)=O)c21 (stereo not given) 1%
O=c1c2sc3ccccc3c2n(Cc2cccc(F)c2)c(=O)n1Cc1ccccc1 -18.5%
O=C(Cn1c(=O)n(Cc2nc(-c3ccccc3)no2)c(=O)c2ccccc21)Nc1cccc(C(F)(F)F)c1 -0.977%
O=C(c1ccc2c(c1)N(Cc1ccccc1F)C(=O)c1ccccc1S2(=O)=O)N1CCC(Cc2ccccc2)CC1 10.6%
COc1ccccc1CNC(=O)C1CCCN(S(=O)(=O)c2ccc3c(c2)oc(=O)n3C)C1 (stereo not given) -21.8%
Cc1c(Cl)cccc1NC(=O)CC1Oc2ccccc2NC1=O (stereo not given) 5.53%
CCOC(=O)c1ccc(N2C(=O)c3[nH]nc(-c4ccccc4)c3C2c2ccc(CC)cc2)cc1 (stereo not given) -8.12%
CCOc1ccccc1NC(=O)CN1C(=O)COc2ccc(S(=O)(=O)N3CCOCC3)cc21 -22.2%
CCOc1ccc(NCc2cccn2-c2nnc(N3CCC(C(=O)NCC(C)c4ccccc4)CC3)s2)cc1 (stereo not given) -17.9%
COc1ccc(Cn2c(CCC(=O)Nc3cc(OC)c(OC)c(OC)c3)nc3cccnc32)cc1 5.36%
O=C(CSc1nccn1Cc1ccccc1)NCc1ccco1 -2.96%
CCOC(=O)c1cc(-c2ccc(OC)cc2)n(CCC(=O)Nc2ccccc2OC)c1C -13.4%
CC1C(=O)Nc2ccc(S(=O)(=O)N3CCCCC3)cc2NC1=O (stereo not given) -23.5%
CCC(CC)C(=O)OCc1cc(=O)n2nc(C3CC3)sc2n1 2.23%
Cn1cc(-c2cc3n(n2)CCC(=O)N3CCCC(=O)NCc2ccc(Cl)cc2)c2ccccc21 -25.9%
O=C(CCCn1c(=O)c2cccn2c2ccccc21)Nc1cc(C(F)(F)F)ccc1Cl -22.7%
Cc1cc(C)n(C(C)CC(=O)Nc2cccc(C(F)(F)F)c2)n1 (stereo not given) -9.01%
CCN(CC)c1ccc(NC(=O)C2CCN(c3nnc(-n4cccc4)s3)CC2)c(C)c1 -16.4%
CCN(c1ccccc1)S(=O)(=O)c1ccc(NC(=O)c2nc(SC)ncc2Cl)cc1 -13.4%
COc1cc(/C=C(\C#N)C(=O)NCC2CCCO2)ccc1O (stereo not given) -1.84%
CCc1ccccc1NC(=O)CSc1nc(-c2cccc(Cl)c2)nc2c1Cc1c(CO)cnc(C)c1O2 -2.81%
CCOc1ccc(CN2CCc3nc(N4CCN(c5ccccc5OC)CC4)ncc3C2)cc1OC -2.27%
CC(C)(C)OC(=O)N1CCC(c2c(C(=O)NCc3cccc(Cl)c3)cnn2-c2ccc(F)cc2)CC1 -11.2%
O=C(Nc1cc(-c2nc3ccccc3o2)ccc1Cl)c1sc2c([N+](=O)[O-])cccc2c1Cl -1.74%
CCOC(=O)c1ccc(NC(=O)CC2C(=O)N(c3ccc(F)cc3)C(=O)N2Cc2cccnc2)cc1 (stereo not given) 6.41%
CC1CCN(C(=O)Cn2c(=O)n(CC3CCC(C(=O)NC(C)C)CC3)c(=O)c3sccc32)CC1 (stereo not given) 0.812%
O=C(NCCCN1CCCCC1)c1sc2ncccc2c1-n1cccc1 18.5%
COc1ccc(-n2c(-c3ccc(C)cc3)cc3c2CC(C)(C)CC3=O)cc1Cl -0.0638%
CCn1nc(C)c2c(-c3ccccc3)cc(=O)n(C(C)C(=O)NCCC(C)C)c21 (stereo not given) 1.64%
COc1ccc(S(=O)(=O)NCC(c2ccco2)S(=O)(=O)c2ccc(C)cc2)cc1F (stereo not given) 2.34%
CC(C)c1ccc(Cn2c(COc3ccccc3)nc3ccccc32)cc1 -0.836%
Cc1ccc(NC(=O)Cn2c(=O)n(Cc3nc(-c4ccccc4)no3)c(=O)c3cc4c(cc32)OCO4)cc1F -4.67%
CCc1ccc(OC(C)C(=O)N2CCC(c3nc4ccccc4o3)CC2)cc1 (stereo not given) -4.69%
Cc1ccc(C(=O)Nc2ccc3c(c2)n(C)c(=O)c(=O)n3C)cc1 2.68%
COc1ccc(CNS(=O)(=O)c2ccc(N3CCCCS3(=O)=O)cc2)cc1 -20.1%
CC1CCN(Cc2c(O)ccc3c(=O)c(Oc4ccccc4Cl)c(C(F)(F)F)oc23)CC1 -5.01%
Cc1ccc(NC(=O)Cn2nc(C(=O)Nc3ccc(C)cc3)ccc2=O)cc1 -2.78%
COc1cc(NC(=O)CSc2nnc(C)n3c2cc2oc(C)cc23)cc(OC)c1 -11.4%
Cc1ccccc1-c1noc(-c2ccc(N3CCCCC3)c([N+](=O)[O-])c2)n1 -1.07%
O=C(NCc1ccc(Cl)cc1)c1cnc2sc(N3CCOCC3)nn2c1=O 14%
Cc1c2cnn(CC(=O)NCc3ccc(F)cc3)c(=O)c2c(C)n1Cc1cccc(Cl)c1 -2.88%
CCOCCCN(Cc1ccco1)S(=O)(=O)c1cc2c(cc1Cl)NC(=O)CO2 -6.37%
O=C(Nc1nnc(N2CCCCCC2)s1)Nc1cc(F)ccc1F -3.44%
CCCOc1ccc(C(=O)Nc2ccc3oc(-c4ccncc4)nc3c2)cc1 3.76%
CCC(Sc1nnc2c(n1)[nH]c1ccccc12)C(=O)Nc1nnc(C(C)C)s1 (stereo not given) -2.54%
COc1cccc(CNC(=O)CCS(=O)(=O)c2ccc3c(c2)oc(=O)n3C)c1 -13.6%
COCCCNC(=O)c1c(NC(=O)Cc2coc3c(C)c(C)ccc23)sc2c1CCCC2 -13.8%
COCCN(Cc1cccs1)S(=O)(=O)c1cc(-c2cc(C)no2)ccc1C -27.4%
Cn1nnc2c(N3CCN(c4cccc(Cl)c4)CC3)ncnc21 -2.53%
CC(C)N(C(=O)Cn1cc(SCC(=O)Nc2ccccc2F)c2ccccc21)C(C)C 3.54%
Cc1cccc(-n2ncc(C(=O)N3CCOCC3)c2C2CCN(C(=O)OC(C)(C)C)CC2)c1 18.9%
CCOc1ccc(C(=O)NCc2ccc3c(c2)CCN3C(=O)c2ccc(Cl)cc2)cc1 -2.46%
Cc1ccc(C(=O)c2cc(O)c(O)c([N+](=O)[O-])c2)cc1 26.1%
Cc1c(CCC(=O)NCCc2ccccc2)c(=O)oc2c(C)c(O)ccc12 7.43%
CCc1ccc(NC(=O)c2ccc(CN3CC(=O)N4CCCCC4C3=O)cc2)cc1 (stereo not given) 0.87%
Cc1c(Cl)cccc1NC(=O)N1CCN(C(=O)c2nsc3ccccc23)CC1 -0.642%

outcome, inactive:
COc1ccc(/C=C/c2nc(C#N)c(NCc3ccc(F)cc3)o2)cc1OC
COc1cc(NC(=O)CCS(=O)(=O)c2ccc3c(c2)CC(=O)N3C)cc(OC)c1OC
Cc1ccccc1Nc1c(-c2cc(Br)ccc2F)nc2ccccn12
CCOc1ccc(N(CC)S(=O)(=O)N2CCCC(C(=O)Nc3ccc(C(C)=O)cc3)C2)cc1 (stereo not given)
O=C(CN1C(=O)COc2ccccc21)NCCc1ccc(Cl)cc1
Cc1c(CNC2CCCCC2)c(C(=O)O)c(C)n1Cc1cccc(Cl)c1
CCc1ccc(NC(=O)CN2C(=O)C(c3ccc(Cl)cc3)=NC23CCCCC3)cc1
CCOc1ccccc1NC(=O)c1nc(SC(C)C)ncc1Cl
COc1ccc(-c2cc(C(=O)Nc3c(C(=O)c4ccc(C)cc4)oc4ccccc34)no2)cc1
CCOc1ccccc1C(=O)N(Cc1ccco1)Cc1ccco1
Cc1cccc2sc(N(Cc3cccnc3)C(=O)CCc3ccccc3)nc12
COc1ccc(-c2nc(SCC(=O)NC3CCCC3)c(-c3ccc(F)cc3)[nH]2)cc1
Cc1ccccc1C(=O)Nc1nnc(S(=O)(=O)N(C)Cc2ccccc2)s1
COc1ccc(NC(=O)CC2C(=O)N(c3cccc(OC)c3)C(=O)N2CCc2cccs2)cc1 (stereo not given)
O=C(COc1ccccc1F)Nc1ccc2nc(SCCOc3ccccc3)sc2c1
CC(=O)Nc1ccc(NC(=O)CCc2nc3cccnc3n2Cc2cccs2)cc1
COc1ccc(NC(c2nnc(-c3ccccc3)o2)c2ccccc2F)cc1Cl (stereo not given)
CCOc1ccc(CCNC(=O)C2CCN(C(=O)N3CC(CC)Oc4ccccc43)CC2)cc1 (stereo not given)
CCCCOC(=O)c1c(N)n(-c2ccc(OC)cc2OC)c2nc3ccccc3nc12
O=C(NC1CC(=O)N(c2cccc(F)c2)C1)c1cccs1 (stereo not given)
Cc1ccc(C(C)C)c(OCCSc2nc(-c3ccccc3F)nc3cc(=O)[nH]n23)c1
